# Source: the supplement of paper PMC10126150
# Sequences with one replicate were seen in a single cluster, so their values are uncertain.
# Tested on: ATP
# Assay: switch fluorescence ratio, 500 uM ATP over buffer (Cy3 cluster intensity, sum of 5 cycles each) (fold (ratio)); higher = stronger signal-on switching upon ATP binding; sequences stand for … in TCGTCGGCAGCGTCAGATGTGTATAAGAGACAGTTTTTTTTTTTTTTTTTTTTTTTTT…TC
# Conditions: aptamer strand: ATP DNA aptamer (quencher-CACCTGGGGGAGTATTGCGGAGGAAGG + anchor), 100 nM annealed; ATP concentration: 500 uM; one replicate
# Procedure, shortened: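 Cy3-labelled switching-strand clusters on a modified Illumina MiSeq flow-cell were annealed to 100 nM quencher-labelled ATP aptamer and imaged first in selection buffer, then after 15 min with 500 uM ATP at 22 °C. NaOH stripping and re-annealing separated each of five buffer/ATP cycles, and clusters outside 100-1000 RFU were excluded. The fluorescence ratio sums target-cycle Cy3 intensity over buffer-cycle Cy3 intensity per cluster and averages it per switch-domain sequence.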
# 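Note: ATP exposure 15 min at 22 °C before imaging.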
row,Sequence,switch fluorescence ratio
1,GCAGAACGGC,1.08
2,TCAGGGGTGA,0.987
3,AGCTGAGCGG,0.984
4,CATGCCTGGG,0.973
5,GCCTGTTCTG,1
6,TGGAGATTCT,0.959
7,CTAGAAGGGC,1.03
8,ATAAGTAGTC,0.97
9,TCCCTGGGG,1.1
10,GACGGGTCTG,0.975
11,GATAGATGAA,0.991
12,CTATTTGCAA,1.41
13,AAGTGACGGG,1.01
14,TTATACAGCG,0.965
15,GTGGTGCTCT,1.03
16,GGACAGTAGT,1.05
17,CCACCGGTGG,1.04
18,AGGGCCTGAA,0.998
19,TCTGTCTGC,0.98
20,ATCATTTCTA,0.987
21,TTATTAACCG,1.03
22,TTAGGTGGTT,1.02
23,AGGATAGACA,1
24,ACCGGGATC,1.13
25,AAAGTAAGGC,1.02

row,Sequence,switch fluorescence ratio
1,AGGCTACAGT,1
2,GGTCTCTATT,0.952
3,AACCGCGGCC,1.2
4,AAGCAGTTGA,1
5,GGGGTACTG,0.97
6,TCACAACTTG,0.981
7,AAGGCGCTGG,0.994
8,GATTATTCCA,0.974
9,ACTACACCCC,1.39
10,AAAGTCTCTT,1
11,TCCGGCTCCT,1.02
12,GCTTTGTAAT,1.01
13,ATACTGGTCA,1.05
14,TAACTGAGTG,1.02
15,ATTCGGCCGA,0.975
16,TGTGGGCCCG,1.06
17,AGTATGTATC,0.998
18,ATGATGAGCA,1.02
19,ACTCAGCTCG,1.08
20,GATACCTGGT,1
21,AAATCTGCCG,0.968
22,TATCATTTGG,1
23,GTGGGACCTC,1
24,ATACCTTAGA,1
25,TCGTAGATTC,1.03

row,Sequence,switch fluorescence ratio
1,GACCTAAGCA,1.1
2,GCAGCCTTCG,1.06
3,ATCAGGCTAA,1.03
4,GTTTAATCAC,1.06
5,ACTAAGTGCG,1.08
6,TTCGAGCACT,1.27
7,TGGTACCTCT,0.953
8,TACCAGTTGG,1.02
9,TTTCCGGCTG,0.979
10,GGGAGAAAGA,1.02
11,TTTCAGGACG,1.03
12,GTTGGGAGTT,0.98
13,ATATAGTAAA,1
14,TATGGAGAGA,0.992
15,GTCGCAGGGG,1.13
16,GTAGGTGGCG,0.966
17,GGGGTGCTGT,0.968
18,CTTAATTGAA,1
19,ATTCTTATAG,1.03
20,GGGCAAGAGG,1.09
21,TTTCTGAAGT,1.01
22,ATAATGAGTT,1.03
23,ACGCTAGTAT,1.02
24,GCATCTTTGG,0.977
25,AAGAGCCCGG,1.04

row,Sequence,switch fluorescence ratio
1,CCGGATGCCT,1.04
2,TAAGTTACAG,1.09
3,GGTTAATTA,1.03
4,AGATAAGAGA,0.985
5,CAGCCAGTTT,0.992
6,TATCTTTTAA,1.03
7,CATCAGGAAG,1.05
8,TACAGTGCGG,1.03
9,TCTTCTTTGG,0.972
10,AGAGGTCGCA,0.943
11,TTCAAGAAGG,1.01
12,TACGGGGAGC,0.979
13,GAACGGGTTT,0.996
14,TAGAGGAGGG,0.997
15,CAATAAGTAC,1.49
16,TGTTTATCCT,1.05
17,TGCAGGACAG,0.963
18,AGTTGAATAT,1.08
19,ACTCTGAATT,1.08
20,ATGGTTGAAA,1.02
21,TACCGCTAAA,1.33
22,TAGTATATCT,0.992
23,GCCAGCGAGA,1.07
24,TGAGAATGTG,1.71
25,CCACCTGGTA,1.32
